Values marked as one replicate rest on one cluster of the flow cell; about a third of the high ones do not repeat.
Tested on: ATP
Assay: switch fluorescence ratio, 500 uM ATP over buffer (Cy3 cluster intensity, sum of 5 cycles each) (fold (ratio)); higher = stronger signal-on switching upon ATP binding; sequences stand for … in TCGTCGGCAGCGTCAGATGTGTATAAGAGACAGTTTTTTTTTTTTTTTTTTTTTTTTT…TC
Settings: aptamer strand: ATP DNA aptamer (quencher-CACCTGGGGGAGTATTGCGGAGGAAGG + anchor), 100 nM annealed; ATP concentration: 500 uM; one replicate
Outline: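 Values give the fluorescence ratio for each switch-domain sequence, averaged from per-cluster ratios of summed target-cycle to summed buffer-cycle Cy3 intensity. The Cy3-labelled switching-strand clusters sat on a modified Illumina MiSeq flow-cell, were annealed to 100 nM quencher-labelled ATP aptamer, and were imaged in selection buffer, then after 15 min with 500 uM ATP at 22 °C. Five cycles ran with NaOH stripping and re-annealing between them, and clusters outside 100-1000 RFU were excluded.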
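Note: ATP exposure 15 min at 22 °C before imaging.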

Row | Sequence | switch fluorescence ratio
1 | ATCCGTCTGG | 1.01
2 | TTTCTTGAAT | 1.02
3 | AGCCGCTACC | 2.9
4 | CGTAAGTCT | 1.02
5 | GAATAAGTGT | 1
6 | AAGCACGGTG | 1.07
7 | CGTGAACAAC | 1.03
8 | TGAATGTGCT | 0.969
9 | CAATTCGTTG | 0.931
10 | GATGGCCATA | 1.01
11 | AGTGATCGCG | 0.968
12 | CACAGTGCGA | 0.999
13 | TCTGACTAGG | 0.997
14 | TTGTGGAGA | 1.06
15 | CCAACGATGA | 1.2
16 | AGGGGAAATA | 5.6
17 | GATTCAGATT | 0.991
18 | TTGAACTAAG | 1.04
19 | CCTGGCCCGG | 1.03
20 | ACCTCCCGCT | 2.97
21 | GACCGGACAA | 1.45
22 | ATCTTATCTG | 1.01
23 | TCGTGGGTTG | 1.03

Row | Sequence | switch fluorescence ratio
24 | GGTATCAAGA | 0.967
25 | CAAAAAGCCG | 1.05
26 | TTCGATTCAT | 1.02
27 | TTTACCATA | 1.09
28 | GAAGCCTTAA | 1.14
29 | CTCAGGGCGG | 0.988
30 | CTATCCGGTG | 1.18
31 | AATCAGTAAG | 0.999
32 | CAATAGAAAG | 0.988
33 | ATTAAATTCA | 0.995
34 | ATGCCAGGAT | 1.02
35 | TTTTCATCCA | 0.985
36 | CAGTGGATGC | 1.04
37 | TGAATTTGTG | 0.912
38 | GATTAAAAAC | 1.05
39 | GAGAGCCACT | 0.941
40 | CGGTGGCAA | 1.42
41 | CCTACTTGAC | 1.29
42 | CGTGTCACAT | 1
43 | TAGCAGGGGC | 1.06
44 | ACCTAGCGCT | 1.01
45 | CTTGAGGACA | 1.01
46 | CAGCCTTTCC | 2.09

Row | Sequence | switch fluorescence ratio
47 | GCGGGAACCG | 1
48 | ATAACTAAAA | 1.01
49 | TTTAGACCTC | 1.02
50 | TGGTAGGGCA | 1
51 | CTTTTGGAC | 1.03
52 | TACCTCATAT | 1.08
53 | CATGGCGCTG | 0.97
54 | GTCGGGTGTA | 1.01
55 | CGAACCTCCC | 1.98
56 | TAGAGAGGTG | 1.07
57 | GTGACAAGTA | 1.04
58 | TAACATTTCG | 0.991
59 | CGCATGCTTT | 1.15
60 | GGTAGTTGCA | 0.962
61 | GACTACTTGA | 1
62 | CGTAGGTGT | 1.06
63 | ACAATTATCT | 1.04
64 | ATCATAGGAA | 0.975
65 | CAGGTGACAC | 1.02
66 | GGACGTCATT | 1.06
67 | ATAGTTTCTT | 0.974
68 | TCGTATATGG | 1.03
69 | CTGAAAGGCG | 1.05

Row | Sequence | switch fluorescence ratio
70 | CCTAGTTAG | 1.05
71 | TTATGATATC | 0.964
72 | CCCTGTAGTG | 1.26
73 | AATTCCCTTG | 0.96
74 | GGTTGTGGTC | 0.989
75 | CGGTTATTGC | 1.01
76 | CCATGACCTT | 1.12
77 | AAGTGTCTGC | 0.975
78 | ATGCTGTCGT | 1.02
79 | AGACGCTTC | 1.11
80 | TTTAATAAT | 1.02
81 | AAGGCCATTG | 1.03
82 | TTCATTGTAC | 1.04
83 | ATTTGGATTC | 1.01
84 | GAGTCGAGCT | 0.998
85 | GGGACGACTC | 1.45
86 | GGGCTTGGTC | 0.946
87 | CAACGGCTGG | 0.99
88 | CTCGGTGTAG | 1.01
89 | CCTGGGAACA | 1.02
90 | GGCCAGTTAG | 0.998
91 | GAATTCGACA | 0.999
92 | TACGAACAT | 1.39

Row | Sequence | switch fluorescence ratio
93 | AATCCAACAA | 1.02
94 | CGGGTTGGCA | 1.03
95 | CCCCTTTTT | 0.99
96 | GGTTAGTTTC | 0.985
97 | CGCACGTTGG | 0.964
98 | TCTGATCTTT | 1.15
99 | ACATTCTTCC | 1.78
100 | ATAAACGCTA | 1.18
101 | CCGTTGCGGG | 1.07
102 | AAGAGACAAT | 1
103 | GAGCAATGTT | 1.5
104 | CAAAGAACGA | 0.974
105 | ATCTTGAGGT | 0.987
106 | TATTGTATTA | 1.02
107 | CACGCCTCCT | 1.12
108 | ATCTGGTTTT | 1.01
109 | CGATAACAAC | 1.08
110 | GGCTAATATG | 1.02
111 | GCTTGGAGAA | 1.01
112 | GAAGCTTATT | 1.01
113 | ATAAGGCCAA | 1.04
114 | CGGCGAGATT | 0.986
115 | GATTTGTAAG | 1.02

Row | Sequence | switch fluorescence ratio
116 | CGGCTCGGAG | 1.01
117 | CTGAATTCTT | 1.02
118 | ATAGTACAAC | 1
119 | ATGCTGGCGG | 1.01
120 | CTTGTATTCG | 0.95
121 | CGGGTACAGG | 1.08
122 | CATTGGCTAC | 2.15
123 | GATTCAAGCG | 1.01
124 | GATGAGAAGG | 1.01
125 | ATTAGCCGGC | 1.01
126 | CGGAAATCCA | 0.953
127 | GCTTGTGAAA | 0.994
128 | CGTCGACCAT | 0.977
129 | ATTCTTCACA | 1.02
130 | CCGAAGAAGA | 2.49
131 | GAAGTCAGTC | 1.04
132 | CCAGCGAGTC | 1.43
133 | TTGTTAGTAG | 1.05
134 | ACGGTTACTT | 1.23
135 | CTAGAGACGA | 0.995
136 | TGTCGGGGG | 0.995
137 | TATAGGCAAG | 0.994
138 | TTGTAACCGA | 1.2

Row | Sequence | switch fluorescence ratio
139 | CGCACTGGTT | 1.04
140 | GAACTCACAT | 1.11
141 | TCCAAGTCGC | 1.07
142 | ACCTCGCGTA | 1.03
143 | TTACAAGGTC | 1.04
144 | CCTTCGTTCT | 1.38
145 | CAGTGTGCCA | 1.01
146 | CAAGACTTCT | 1.06
147 | CAGGTCACA | 1.01
148 | CAGCCGGTTT | 0.998
149 | TGATTCAACG | 1.02
150 | ATTCAGAAT | 1.01
151 | GGCAAACGCT | 1.02
152 | TATGCTTCTT | 1
153 | TAGGGATCA | 1.01
154 | TATCCTGTTG | 1
155 | CAGTTGCGGC | 1.03
156 | TAATGATTCC | 1.14
157 | ACGAGAACCG | 1.06
